Measured values: PubChem BioAssay AID485294 (National Center for Advancing Translational Sciences (NCATS), 2010)
The campaign covered roughly 370,000 compounds. About 150 (0.041%) were called active. Inconclusive results, whose numbers are uncertain, are shown with a selection of clear calls. Calls follow the shape of the dose curve; as a rule, active = well fitted inhibition curve with a large enough effect; inconclusive = small, poorly fitted or top-dose-only effect; inactive = flat fitted curve, though single readings scatter. Potencies of inconclusive entries are left out as doubtful fits.

What follows are compounds tested against Beta-lactamase (Escherichia coli (strain K12)) (UniProt P00811) (assay: qHTS Inhibitors of AmpC Beta-Lactamase (assay with detergent)). Conditions: AmpC hydrolysis of nitrocefin, absorbance 480 nm, 0.01% Triton; activity change, negative = inhibition: at 114 µM (top of the series).
Sequence of UniProt P00811 (P00811 whole entry, looked up): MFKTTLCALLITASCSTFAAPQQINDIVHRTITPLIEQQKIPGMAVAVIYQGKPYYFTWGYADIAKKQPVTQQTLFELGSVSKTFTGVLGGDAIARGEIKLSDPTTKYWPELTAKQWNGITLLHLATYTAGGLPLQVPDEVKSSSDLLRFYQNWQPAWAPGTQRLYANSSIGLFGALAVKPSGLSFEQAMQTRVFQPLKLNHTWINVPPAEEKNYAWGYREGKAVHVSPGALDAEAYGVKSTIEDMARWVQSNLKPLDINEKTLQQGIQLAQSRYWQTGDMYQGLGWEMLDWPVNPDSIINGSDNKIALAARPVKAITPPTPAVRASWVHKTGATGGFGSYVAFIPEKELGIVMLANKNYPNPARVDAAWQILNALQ
Method in brief: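 20 mM phosphate pH 7.0 + 0.01% (detergent screen) or 0.0001% Triton X-100; 5.3 nM AmpC reagent; cpd preinc 15 min RT; nitrocefin (800 uM stock) to start; A480 q20 s × 4 min; Activity was normalised to no-enzyme and no-compound control wells.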
Also: nearly all actives have a fitted effect of over 25% in size.
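For activity change, negative = inhibition in this document: 0% = no-compound wells and -100% = no-enzyme wells.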
Potency is read from the fitted curve at half-maximal effect; tags tell the direction and shape of the fitted curve.

Row | Structure (SMILES) | activity change, negative = inhibition | Potency
1 | Cc1nnc(N2CCN(c3ccc(Cl)cc3)CC2)c2c1nnn2Cc1ccc(F)cc1 | inactive: 16.7% | –
2 | CC1=C(C(=O)Nc2ccc(C)cc2)C(c2ccc(C)o2)C2=C(CC(C)(C)CC2=O)N1 (stereo not given) | – | inconclusive [inhibitor, full curve]
3 | CCCC1Cc2c(sc(NC(=S)NC(=O)c3ccccc3)c2C#N)CO1 (stereo not given) | – | inconclusive [inhibitor, single point]
4 | CCCC(=O)NC(=S)Nc1ccccc1F | inactive: 2.71% | –
5 | O=C(Nc1nccc(-c2cccs2)n1)c1ccccc1Cl | inactive: -5.45% | –
6 | Cc1cccnc1NC(=O)c1ccc2c(c1)OCCO2 | – | inconclusive [inhibitor, full curve, poor fit]
7 | O=c1cccc2n1CC1CC2CN(C(c2cccc(F)c2)c2sc3ncnn3c2O)C1 (stereo not given) | – | inconclusive [inhibitor, full curve, poor fit]
8 | Nc1nc(-c2ccccn2)nc(N)c1Cc1ccccc1F | – | inconclusive [inhibitor, partial curve, poor fit]
9 | O=C(Nc1ccccc1Oc1ccccc1)c1cccs1 | – | inconclusive [inhibitor, partial curve, poor fit]
10 | COc1ccc2c(CNCc3ccco3)c(C(=O)O)n(Cc3ccc(F)cc3Cl)c2c1 | inactive: 17.5% | –
11 | COc1cccc(OCCNc2cc(N3CCOCC3)ccc2[N+](=O)[O-])c1 | inactive: -3.63% | –
12 | O=C(CCN1C(=O)[C@@H]2Cc3ccccc3CN2C1=O)N[C@H](Cc1ccccc1)C(=O)O | – | inconclusive [inhibitor, full curve]
13 | Cc1cc(C)n(CCO)c(=O)n1 | – | inconclusive [inhibitor, full curve, poor fit]
14 | O=C(Nc1ccc(Cl)c(Cl)c1)C1CCCCC1 | – | inconclusive [inhibitor, full curve, poor fit]
15 | NC(=S)NN=C1c2cc(S(=O)(=O)N3CCOCC3)ccc2-c2ccc(S(=O)(=O)N3CCOCC3)cc21 | – | inconclusive [inhibitor, partial curve]
16 | O=C(C1CC1)N1N=C2CCCCC2C1(O)C(F)(F)F (stereo not given) | – | inconclusive [inhibitor, full curve]
17 | O=C(Cn1c(SCCOc2ccccc2Cl)nc2ccccc21)N1CCOCC1 | inactive: 1.3% | –
18 | O=C(/C=C/c1ccc(Cl)cc1Cl)Nc1ccncc1 | inactive: -2.31% | –
19 | CC1CN(C(c2ccco2)c2sc3ncnn3c2O)CC(C)O1 (stereo not given) | – | inconclusive [inhibitor, full curve, poor fit]
20 | CCOC(=O)c1c(-c2ccccc2)cn2c(C)cc(C)nc12 | inactive: -7.17% | –
21 | Cc1cc(C)n2nc(C(=O)OCC(=O)Nc3ccc(C)c(S(=O)(=O)N(C)C)c3)nc2n1 | – | inconclusive [inhibitor, full curve, poor fit]
22 | O=C1CCCC(O)=C1C(C#Cc1ccccc1)C1=C(O)CCCC1=O | – | inconclusive [inhibitor, full curve, poor fit]
23 | Cc1cccc(NC(=O)CSc2nnc(NC(=O)CN3CCOCC3)s2)c1 | – | inconclusive [inhibitor, full curve, poor fit]
24 | COCCCn1c(=NC(=O)c2ccncc2)c(C#N)cc2c(=O)n3cccc(C)c3nc21 | inactive: 0.399% | –

Row | Structure (SMILES) | activity change, negative = inhibition | Potency
25 | CC(=O)Nc1ccc(N=Nc2ccccc2)cc1 | – | inconclusive [inhibitor, single point]
26 | O=C(CSc1nncn1-c1ccccc1)c1c[nH]c2ccccc12 | inactive: -0.521% | –
27 | CC(C)CC1Nc2ncnc(N3CCN(c4ccccn4)CC3)c2N(Cc2ccc(Br)cc2)C1=O (stereo not given) | – | inconclusive [inhibitor, full curve, poor fit]
28 | CCCn1c(CN2CCN(C(=O)c3ccco3)CC2)nc2c1c(=O)n(C)c(=O)n2C | – | inconclusive [inhibitor, full curve, poor fit]
29 | Cc1ccc(C(=O)Oc2ccc(C(=O)COC(=O)C3CC(=O)N(Cc4ccco4)C3)cc2)cc1 (stereo not given) | – | inconclusive [inhibitor, full curve, poor fit]
30 | CCOC(=O)c1cc2sccc2n1CCCN1C(=O)c2ccccc2C1=O | – | inconclusive [inhibitor, full curve, poor fit]
31 | CCOC(=O)CNC(=O)C(Cc1ccccc1)NC(=O)OCc1ccccc1 (stereo not given) | inactive: -1.4% | –
32 | CS(=O)(=O)N1N=C(c2ccc(Br)cc2)CC1c1cccs1 (stereo not given) | – | inconclusive [inhibitor, full curve, poor fit]
33 | O=C1c2ccccc2NC(c2ccc(O)cc2)N1Cc1ccco1 (stereo not given) | inactive: -2.14% | –
34 | O=C(c1cc2nc(-c3ccco3)cc(C(F)(F)F)n2n1)N1CCc2ccccc2C1 | inactive: 6.47% | –
35 | CC(C)[C@H](NC(=O)c1ccccc1)C(=O)OCc1nc2scc(-c3ccccc3)c2c(=O)[nH]1 | – | inconclusive [inhibitor, full curve, poor fit]
36 | COc1cccc(CNC(=O)C2CCC(=O)N(C3CC3)C2)c1OC (stereo not given) | – | inconclusive [inhibitor, partial curve]
37 | CN(C(=O)CCCN1C(=O)c2ccccc2C1=O)C1CCCCC1 | – | inconclusive [inhibitor, full curve, poor fit]
38 | COC(=O)C1C2C=CC3(CN(c4ccc(Cl)c(F)c4)C(=O)C13)O2 (stereo not given) | – | inconclusive [inhibitor, partial curve]
39 | C=CCn1c(SCC(=O)Nc2cccc(OC)c2)nnc1-c1cccnc1 | – | inconclusive [inhibitor, full curve, poor fit]
40 | Cc1ccc(SC(=O)c2c(C)noc2-c2cc(C)on2)cc1 | inactive: 2.25% | –
41 | Cc1cccc(/C=N/NC(=O)c2ccc(Br)cc2)c1 | inactive: -8.98% | –
42 | Cc1ncsc1C(=O)Nc1nc2c(s1)CC(C)CC2 (stereo not given) | – | inconclusive [inhibitor, full curve, poor fit]
43 | Cc1cc(C(=O)N2CCCC(Nc3ccccc3)C2)c2ccc(F)cc2n1 (stereo not given) | – | inconclusive [inhibitor, full curve, poor fit]
44 | CC(C)C(CO)NC(=O)CC(=O)NC(CO)C(C)C (stereo not given) | – | inconclusive [inhibitor, full curve, poor fit]
45 | COC(=O)c1cc(NC2c3ccccc3C(=O)N2c2cccnc2)cc(C(=O)OC)c1 (stereo not given) | – | inconclusive [inhibitor, full curve, poor fit]
46 | CC(C)c1ccc(CNc2ccc3c(c2)ncn3C)cc1 | inactive: 3.09% | –
47 | COC(=O)C(C)(C)ONC(=O)Nc1ccccc1Cl | – | inconclusive [inhibitor, full curve, poor fit]
48 | CCC(C)N(C(=O)CSc1nnc2ccccn12)C1CCS(=O)(=O)C1 (stereo not given) | – | inconclusive [inhibitor, full curve]

Row | Structure (SMILES) | activity change, negative = inhibition | Potency
49 | Cc1ccc(-n2ncc3c(=O)n(CC(=O)NCc4ccco4)cnc32)cc1C | – | inconclusive [inhibitor, full curve, poor fit]
50 | CCn1c(CC(=O)Nc2cccc(Cl)c2Cl)nnc1SCCOc1ccc(OC)cc1 | – | inconclusive [inhibitor, full curve, poor fit]
51 | O=C1C2C3C=CC(C4CC34)C2C(=O)N1/N=C/c1ccc(-c2ccc(F)cc2[N+](=O)[O-])o1 (stereo not given) | inactive: -0.71% | –
52 | CN(C)C(=O)COc1ccc2c(-c3ccccc3)cc(=O)oc2c1 | – | inconclusive [inhibitor, single point]
53 | CN1CCN(Cc2ccc(OC(F)(F)F)cc2)CC1 | – | inconclusive [inhibitor, partial curve, poor fit]
54 | C=C(C)c1cccc(C(C)(C)NC(=O)Nc2nnc(C(C)C)s2)c1 | inactive: -5.08% | –
55 | O=C(O/N=C1\CCCc2ccccc21)c1cccs1 | inactive: -11.1% | –
56 | CSc1ccccc1C(=O)Nc1ccccc1C(=O)NC(C)C | inactive: -1.46% | –
57 | COc1ccc2nc(NC(=O)c3ccc(NS(=O)(=O)c4cccs4)cc3)sc2c1 | – | inconclusive [inhibitor, partial curve]
58 | c1csc(CNc2ncnc3nc[nH]c23)c1 | inactive: 2.47% | –
59 | CN(CC(=O)Nc1ccc2c(c1)OCCO2)S(=O)(=O)c1cccc2cccnc12 | – | inconclusive [inhibitor, full curve, poor fit]
60 | CC(C)c1cc(Br)ccc1OCCCN1C(=O)NC(C)(C)C1=O | – | inconclusive [inhibitor, full curve, poor fit]
61 | Cc1ccc(-n2nnc(-c3nc(-c4cccs4)no3)c2N)cc1C | inactive: 1.58% | –
62 | CCOc1ccc(S(=O)(=O)N2CCN(c3ccccc3)CC2)c2cccnc12 | – | inconclusive [inhibitor, partial curve, poor fit]
63 | CCOC(=O)C1=C(C)Nc2nc3ccccc3n2C1c1ccccc1 (stereo not given) | – | inconclusive [inhibitor, partial curve, poor fit]
64 | Cc1ccc(-n2cccc2C(=S)N=P(N(C)C)(N(C)C)N(C)C)cc1 | inactive: -17.6% | –
65 | O=C(CCCN1C(=O)c2cccc3cccc(c23)C1=O)NC1CCS(=O)(=O)C1 (stereo not given) | inactive: 0.691% | –
66 | Clc1ccc2nc(COc3ccccc3)[nH]c2c1 | – | inconclusive [inhibitor, full curve]
67 | CCOC(=O)c1ccc(Nc2ncnc3ccccc23)cc1 | inactive: -0.113% | –
68 | COc1ccc(Cl)cc1NC(=S)N(Cc1cccnc1)Cc1ccco1 | – | inconclusive [inhibitor, full curve, poor fit]
69 | Cc1ccc(-c2nc(CCNC(=O)c3ccco3)cs2)cc1 | – | inconclusive [inhibitor, full curve, poor fit]
70 | Cc1cc(NC(=O)CSc2nnc(NC(=O)C3CC(=O)N(c4ccccc4)C3)s2)no1 (stereo not given) | – | inconclusive [inhibitor, full curve]
